Laboratory results: PubChem BioAssay AID1508624 (National Center for Advancing Translational Sciences (NCATS), 2021)
In all, about 48,000 compounds went through this assay and about 120 (0.25%) were called active. Roughly 4% stayed inconclusive and do not appear here. The call rests on the fitted dose curve; in most records, active means well fitted activation curve with a large enough effect; inconclusive means small, poorly fitted or top-dose-only effect, or another doubt; inactive means no such curve, though single readings can be large or run the other way. Some of the results follow.

experiment: Primary qHTS for Identification of Small Molecule Activators of Huntingtin-Antisense Promoter Activity; details: HEK293 HTT-AS promoter firefly luciferase reporter, 24 h; series mostly up to 57.5 µM; activity change, positive = activation: at the top concentration; further: nearly all actives have a fitted effect of over 55% in size
Procedure, shortened: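 Firefly luciferase readout (Dual-Glo, 10 min RT) after 24 h, 37 °C compound exposure (final up to 57.5 uM) of HEK293 reporter cells cultured 24 h beforehand; PTC124 at 50 uM final as control inhibitor; activity scaled vehicle 0%, zero RLU -100%.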
Potency means the concentration at half of the fitted maximal effect.

SMILES | activity change, positive = activation | Potency
COCCCNC(=O)c1cnn(-c2ccc(F)cc2F)c1C1CCNCC1 | inactive: -18.9% | –
O=C(Cn1c(=O)oc2cc(S(=O)(=O)NCc3ccccc3)ccc21)NCc1ccccc1Cl | inactive: -34.6% | –
COc1ccc(NC(=O)CC2C(=O)N(c3ccc(F)cc3)C(=O)N2CCc2sccc2C)cc1 (stereo unspecified) | inactive: -46.6% | –
CCOC(=O)c1cc(-c2ccccc2)n(CCC(=O)Nc2cc(C)cc(C)c2)c1C | inactive: -32.1% | –
CN(Cc1ccccc1)C(=O)C1CCC(CNS(=O)(=O)c2ccc3c(c2)CCCC(=O)N3)CC1 (stereo unspecified) | inactive: -27.2% | –
CC(C)C(=O)Nc1ncc(-c2cc(C(F)F)nn2-c2c(Cl)cccc2Cl)s1 | inactive: -37.8% | –
COc1cc([C@H]2Oc3cc([C@H]4Oc5cc(O)cc(O)c5C(=O)[C@@H]4O)ccc3O[C@@H]2CO)ccc1O | inactive: -16.3% | –
Cc1ccc(N2CCN(C(=O)C3CCN(c4ncnc5c4nc4n5CCCCC4)CC3)CC2)c(C)c1 | inactive: -14.7% | –
Cc1ccc2nc(NC(=O)c3nc(SCc4ccccc4C)ncc3Cl)sc2c1 | inactive: -12.9% | –
N#C/C(=C1/SC[C@@H](c2ccc(Cl)cc2Cl)S1)n1ccnc1 | inactive: -50.8% | –
CCOC(=O)C(=O)Nc1nnc2n1CCS2 | inactive: -13.8% | –
COc1ccc(NC(=O)Cn2c(=O)n(Cc3ccccc3)c(=O)c3oc4ccccc4c32)cc1Cl | inactive: 6.97% | –
Cc1nc2c(C(=O)NCc3ccccc3Cl)cnn2c(C)c1Cc1ccccc1 | inactive: -9.74% | –
Cc1ccc(C)c(-n2cc(-c3ccccc3)nc2SCC(=O)Nc2ccccc2)c1 | inactive: -24.7% | –
Cc1nc(N2CCCC2)ncc1C(=O)N1CCN(c2ccc(Cl)cc2)CC1 | inactive: -16.9% | –
Cn1cc(S(=O)(=O)N2CCCCC2)cc1C(=O)N1CCN(c2ccccc2F)CC1 | inactive: -21.2% | –
Cc1nc2n(c(=O)c1CCN1CCC(c3noc4cc(F)ccc34)CC1)CCC[C@H]2O | inactive: -1.23% [at 25.1 µM, percent change from vehicle, -100% = no light] | –
O=C(CSc1nc2c([nH]c3ccccc32)c(=O)n1-c1ccc(Cl)cc1)N1CCCCCC1 | inactive: -14.2% | –
COc1cccc(-c2csc(-c3c(N)c(C(=O)c4ccccc4)n4ccccc34)n2)c1 | inactive: 10.3% | –
CCOC(=O)c1ccccc1NC(=O)Cn1c(=O)n(CCCC(=O)NCc2ccc3c(c2)OCO3)c(=O)c2ccccc21 | inactive: -10% | –
CCCCOc1cc(C(=O)OCCN(CC)CC)ccc1N | inactive: -2.21% | –
CCc1cccc(NC(=O)CSc2ncc3c(n2)-c2ccccc2N(CC)S3(=O)=O)c1 | inactive: -40% | –
COc1ccc(NC(=O)C(C)n2nc(-c3cc(C)ccc3C)c3c(c2=O)CCCC3)cc1 (stereo unspecified) | inactive: -36.5% | –
O=C(NCCc1ccccc1)C(=O)NCC(c1ccco1)S(=O)(=O)c1ccccc1 (stereo unspecified) | inactive: -14.7% | –

SMILES | activity change, positive = activation | Potency
COCCCNC(=O)CCC(=O)NNc1nc2ccccc2c2nc(-c3ccccc3)nn12 | inactive: -6.76% | –
COCCNC(=O)CSc1nc2cc3c(cc2c(=O)n1Cc1ccc(C(=O)NCCc2ccc(OC)c(OC)c2)cc1)OCO3 | inactive: -3.21% | –
CCOc1ccc(NC(=O)CSc2nnc(-c3ccncc3)n2-c2ccccc2)cc1 | inactive: 1.88% | –
Nc1c[n+](N2CCOCC2)no1 | inactive: -3.15% | –
COc1ccc(CNC(=O)c2ccc(CSc3nc4ccncc4n3Cc3ccccc3F)cc2)cc1 | inactive: -6.44% | –
Cc1cc(Nc2cc(N3CCN(C)CC3)nc(Sc3ccc(NC(=O)C4CC4)cc3)n2)n[nH]1 | inactive: -15.8% | –
CN1CCN(CCCNC(=O)Cn2c(-c3cccs3)cc3cc(Cl)ccc32)CC1 | inactive: -24.4% | –
Cc1ccc(CN2COc3cc(C)c4c(oc(=O)c5ccccc54)c3C2)cc1 | inactive: -2.55% | –
CCOc1ccc(NC(=O)c2cnn(-c3ccc(C)c(Cl)c3)c2C2CCNCC2)cc1 | inactive: -16.1% | –
COc1cc(OC)c(NC(=O)C(NS(=O)(=O)c2cccc3nsnc23)c2ccccc2)cc1Cl (stereo unspecified) | inactive: -11.9% | –
COC(=O)C1=CO[C@@H](O)[C@@H]2C(CO)=CC[C@@H]12 | inactive: -0.98% | –
CCOc1cc(C2NC(=O)c3c(sc4c3CCN(C)C4)N2)ccc1OC(=O)c1ccccc1Cl (stereo unspecified) | inactive: -35.1% | –
COc1ccc(-c2[nH]c(-c3ccccc3)nc2SCC(=O)Nc2ccc3c(c2)OCCO3)cc1 | inactive: -19.1% | –
CN1CCN(N)CC1 | inactive: -4% | –
CCc1ccc(-c2nc(CN3CCCC(C(=O)NCc4ccc(C)cc4)C3)c(C)o2)cc1 (stereo unspecified) | inactive: -5.12% | –
COc1ccc(-c2cc3nc(C)c(CCC(=O)Nc4cccc(C(F)(F)F)c4)c(C)n3n2)c(OC)c1 | inactive: -21% | –
CCn1cc2nc(SCC(=O)Nc3ccccc3F)n(Cc3ccc(C)cc3)c(=O)c2n1 | inactive: -31.8% | –
Cc1ccc(CNC(=O)Nc2cn(CC(C)C)c(=O)c3ccccc23)cc1 | inactive: -19.6% | –
CN(C(=O)Cn1cc(S(=O)(=O)N2CCN(c3ccccc3F)CC2)c2ccccc2c1=O)c1ccc(Cl)cc1 | inactive: -6.61% | –
COCC(C)NC(=O)c1cnn2c(C(F)F)cc(-c3ccccc3)nc12 (stereo unspecified) | inactive: -3.59% | –
Clc1ccc2nsnc2c1NC1=NCCN1 | inactive: -20.7% | –
Cc1cc(C)c(NC(=O)CN2c3ccccc3S(=O)(=O)c3ccccc32)c(C)c1 | inactive: -28.4% | –
O=C(NCCCN1CCN(c2ccccc2F)CC1)c1cc2c(Cl)nc3ccccc3c2s1 | inactive: -12.2% | –
CCCCCOc1ccc(NC(=O)Cc2csc(C)n2)cc1 | inactive: -1.03% | –

SMILES | activity change, positive = activation | Potency
O=C(Nc1sc2c(c1C(=O)Nc1ccc(Cl)cc1)CCCC2)c1cccs1 | inactive: 8.53% [at 11.5 µM, percent change from vehicle, -100% = no light] | –
Cc1nnc(SCc2ccccc2Cl)c2cc3sccc3n12 | inactive: 13.7% | –
Cc1nc2c(C(=O)O)cnn2c(C)c1Cc1ccccc1 | inactive: -5.42% | –
Cc1ccccc1C(=O)Nc1nc2nc(C)c(C)c(=O)n2[nH]1 | inactive: -10.2% | –
CCCc1nn2c(=O)cc(COC(=O)c3ccc(NC(=O)CCc4ccccc4)cc3)nc2s1 | inactive: -15.9% | –
CC(=O)Nc1nnc(S(N)(=O)=O)s1 | inactive: -7.19% | –
Cc1ccc(C(=O)CSc2ncc3c(n2)-c2ccccc2N(Cc2ccc(Cl)cc2)S3(=O)=O)cc1 | inactive: -11.9% | –
CCCCOc1ccc(C(=O)Nc2ccc(F)cc2F)cc1 | inactive: -21.8% | –
CC(=O)Nc1c(I)cc(I)c(C(=O)O)c1I | inactive: -6.32% | –
CCCCOc1ccc(CNC(=O)c2ccc(-c3nc(CN4CCc5ccccc54)c(C)o3)cc2)cc1 | inactive: -23% | –
Cc1cc2cc3c(C)cc(=O)oc3c(C)c2o1 | inactive | –
CCOC(=O)c1cnc2c(ccc3ccccc32)c1Nc1ccccc1OC | inactive: -10.4% [at 11.5 µM, percent change from vehicle, -100% = no light] | –
Cc1ccc(S(=O)(=O)CCC(=O)Nc2ccc(Br)cc2C)cc1 | inactive: -25.8% | –
COc1ccc(NC(=O)Cn2c(=O)cc(C)c3c(C)nn(-c4cccc(Cl)c4C)c32)cc1OC | inactive: -9.81% | –
CC(C)Oc1ccc2c(=O)c(-c3ccccc3)coc2c1 | – | active: 863 nM
O=C(NCCc1csc(-c2ccc(F)cc2)n1)c1cccs1 | inactive: -15.8% | –
O=C(NC1CC(=O)N(c2ccc3c(c2)OCCO3)C1)c1c(F)cccc1Cl (stereo unspecified) | inactive: -14.1% | –
CCOC(=O)c1cc(-c2ccccc2)n(CC(=O)NC2CCC(C)CC2)c1C (stereo unspecified) | inactive: -3.93% | –
COc1ccc(-c2noc(CSc3nnc(Cc4ccccc4)n3-c3ccccc3)n2)cc1OC | inactive: -34.8% | –
Cc1ccc2c(c1)c(=O)c(C(=O)c1ccc3c(c1)OCO3)cn2Cc1cccc(F)c1 | inactive: -18.1% | –
COCCNc1oc(-c2ccc(COc3ccc(OC)cc3)o2)nc1C#N | inactive: -20% | –
Cc1ccc(-c2nn(-c3ccc(F)cc3F)c3c2cnc2c(F)cccc23)cc1 | inactive: -14.6% | –
Cc1ccc(NC(=O)CSc2nc3ccccc3c3nc(CCc4c(C)n[nH]c4C)nn23)c(C)c1 | inactive: -0.24% | –
NC1=N[C@@]2(c3cc(NC(=O)c4ccc(F)cn4)ccc3F)COC[C@@H]2CS1 | inactive: -26.7% | –

SMILES | activity change, positive = activation | Potency
CCc1cccc(C)c1NC(=O)C1CCN(c2nn3c(=O)cc(C)nc3s2)CC1 | inactive: -8.25% | –
COc1ccc(-c2cc(C(F)(F)F)nc(SCC(=O)N3CCCCC3C)n2)cc1OC (stereo unspecified) | inactive: -13.7% | –
Cc1ccc2oc(=O)c3cc(C(=O)Nc4ccccc4C(N)=O)sc3c2c1 | inactive: -8.15% | –
O=C1CCCc2cc(S(=O)(=O)NCC3CCC(C(=O)NCc4ccccc4Cl)CC3)ccc2N1 (stereo unspecified) | inactive: -15.7% | –
COc1ccc(CCNC(=O)c2cc3c(s2)-c2ccccc2OC3)cc1OC | inactive: -18.7% | –
Fc1ccc(N2CCN(c3ncnc4c3nc3n4CCCCC3)CC2)cc1 | inactive: -43.5% | –
COc1ccc(S(=O)(=O)c2c(O)c3ccc(C(=O)NCc4ccccc4)cc3[nH]c2=O)cc1 | inactive: -14.9% | –
CCOC(=O)c1cnc2c(ccc3ccccc32)c1Nc1ccc(OCC)cc1 | inactive: -4.34% | –
CCOCCCn1c(=N)c(C(=O)NCc2cccnc2)cc2c(=O)n3cc(C)ccc3nc21 | inactive: 1.92% | –
CCOc1ccc(Nc2cc(C)nc3nc(Cc4ccc(Cl)cc4)nn23)cc1 | inactive: -23.2% | –
Cc1ccc(-n2nc3c(N4CCC(C(=O)NC(C)c5ccccc5)CC4)nnc(C)c3c2C)cc1 (stereo unspecified) | inactive: -14.9% | –
COc1ccccc1N1CCN(C(=O)c2c(C)oc3ncn(CC(C)C)c(=O)c23)CC1 | inactive: 5.41% | –
O=C(Cn1ccc2ccccc2c1=O)NCCC(=O)Nc1ccc(F)cc1F | inactive: -3.59% | –
O=C(CCCl)NCCc1ccccc1 | inactive: 1.63% | –
CCOC(=O)c1cccc(NC(=O)c2cc(S(=O)(=O)N3CCCC(C)C3)cn2C)c1 (stereo unspecified) | inactive: -36.2% | –
CC1=C(C(N)=O)C(c2ccc(C)cc2)n2nc(SCc3ccccc3F)nc2N1 (stereo unspecified) | inactive: -0.546% | –
CC(=O)Nc1ccccc1-c1nc2ccccc2n(CC(=O)c2ccc(Br)cc2)c1=O | inactive: -18.2% | –
COc1cccc(CNC(=O)CSc2nnc(C)c3c(C)n(-c4ccccc4)nc23)c1OC | inactive: -18.9% | –
CCOC(=O)C1CCCN(C(=O)Cn2ncc3c(C)n(Cc4ccccc4F)c(C)c3c2=O)C1 (stereo unspecified) | inactive: -23% | –
NC1(Cc2ccc(Cl)cc2)CCN(c2ncnc3[nH]ccc23)CC1 | inactive: -36.2% | –
COC(=O)CNC(c1ccccc1)c1cc(Br)ccc1NC(=O)c1ccccc1 (stereo unspecified) | inactive: -14.3% | –
COc1cccc(-n2cc(C(=O)Nc3cc(OC)c(OC)c(OC)c3)c3ccccc3c2=O)c1 | inactive: -24.2% | –
CCCn1c(=O)c2c(nc3n2CCN3c2ccc(C)cc2)n(C)c1=O | inactive: -1.71% | –
CC[C@@H](C)[C@@H](C(=O)Nc1ccc(C)cc1)N1Cc2ccccc2C1=O | inactive: -23.2% | –
